Data as given in PubChem BioAssay AID686971 (National Center for Advancing Translational Sciences (NCATS), 2013).
Hit rate of the full screen: of about 360,000 compounds, about 7,500 (2.1%) were called active. Inconclusive means that the source gave no clear call. Such entries were picked first, then a sample of the others. Calls follow the shape of the dose curve; as a rule, active = well fitted cell-killing curve with a large enough effect; inconclusive = small, poorly fitted or top-dose-only effect, or effect the other way, or another doubt; inactive = no such curve, though single readings can be large or run the other way. Potencies of inconclusive entries are left out as doubtful fits.
Potency is read from the fitted curve at half-maximal effect; tags tell the direction and shape of the fitted curve.

Test: qHTS for induction of synthetic lethality in tumor cells producing 2HG: qHTS for the HT-1080-IDH1KD cell line;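 as to activity, negative = toxicity: 0% = DMSO wells and -100% = cell-free medium wells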
Details: HT-1080 IDH1 knockdown viability, ATP luminescence, 48 h; activity, negative = toxicity: at 46.1 µM (top of the series) unless noted
Method in brief: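 Luminescent ATP read-out (CellTiter-Glo, 10 min at room temperature) after 48 h compound exposure at 37 °C gave viability of IDH1-knockdown HT-1080 cells. Activity was normalised to DMSO and cell-free wells, then fitted as concentration-response curves.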
With `Cc1ccc(C(=O)OCC(=O)c2c[nH]c3ccccc23)cc1S(=O)(=O)N1CCCCC1` the “activity, negative = toxicity” value was inactive: -0.619%. In the case of `COC(=O)c1ccc(CNC(=O)COC(=O)/C=C/c2cc(OC)c(OC)c(OC)c2)cc1`, the “activity, negative = toxicity” value is reported as inactive: -0.562%. In the case of `O=C(NNC(=S)Nc1ccc(Cl)cc1)c1ccccc1OC(F)F`, the Potency is reported as inconclusive [cytotoxic, single point]. In the case of `CCN1CCN(c2ccc([N+](=O)[O-])cc2C(=O)c2ccc(Cl)cc2)CC1`, the Potency is reported as active: 23.1 µM. With `O=C(CCc1nc2ccccc2c(=O)[nH]1)N1CCN(S(=O)(=O)c2ccccc2Br)CC1` the “activity, negative = toxicity” value was inactive: -21.4%. With `CC(=O)N1CCN(Cc2cc(=O)oc3ccc4ccccc4c23)CC1` the “activity, negative = toxicity” value was inactive: -4.6%. With `CC(=O)NC(c1cccc(F)c1)c1nc(-c2ccoc2)cs1` (centres undefined) the Potency was inconclusive [rising, partial curve]. For `CCN(CC)c1nc(N)c2c(N)nc3c(c2c1C#N)CC(c1ccccc1)O3` (centres undefined), the Potency was inconclusive [cytotoxic, single point]. For `Cc1cc(C(=O)NNC(=O)c2ccccc2F)c2ccccc2n1`, the “activity, negative = toxicity” value was inactive: 2.38%. For `CC(C)N(C)c1ncnc2c1ncn2[C@H]1CN(Cc2ccc3c(c2)OCO3)C[C@@H](CO)O1`, the “activity, negative = toxicity” value was inactive: 8.43%. In the case of `O=C(Nc1ncc(Cc2ccccc2)s1)c1cccs1`, the Potency is reported as inconclusive [cytotoxic, partial curve]. With `COc1ccc2[nH]cc(CCNC(=O)COc3cc(C)cc4oc(=O)cc(C)c34)c2c1` the “activity, negative = toxicity” value was inactive: -1.69%. In the case of `CCOC(=O)c1cnc(-n2nc(C)cc2C)nc1NC1CCCC1`, the Potency is reported as inconclusive [cytotoxic, single point]. In the case of `COc1ccc(S(=O)(=O)Nc2cccc3c2O[C@H](CN(C)Cc2ccc(Cl)c(Cl)c2)[C@@H](C)CN([C@H](C)CO)C3=O)cc1`, the Potency is reported as inconclusive [cytotoxic, single point]. With `C/C(=N\NC(=O)c1ccc(NS(=O)(=O)c2cccs2)cc1)c1ccccn1` the Potency was inconclusive [cytotoxic, single point]. In the case of `COc1ccc2nc(SCC(=O)c3ccco3)[nH]c2c1`, the “activity, negative = toxicity” value is reported as inactive: 5.25%. For `CC(=O)Nc1ccc(NC(=O)COC(=O)CCNS(=O)(=O)c2c(Cl)cccc2Cl)cc1`, the “activity, negative = toxicity” value was inactive: 2.34%. With `CC(C)C(=O)Nc1ccc(Sc2ccc(F)cc2)cc1` the “activity, negative = toxicity” value was inactive: -4.25%. For `COc1cc2c(cc1OC)CN(c1nc(CN3CCOCC3)nc3sc4c(c13)CCCC4)CC2`, the Potency was inconclusive [cytotoxic, single point]. In the case of `OCCN1CCN(c2nc(-c3ccccc3)c3cc(Br)ccc3n2)CC1`, the Potency is reported as active: 23.1 µM. With `CC(=O)c1ccc(N2CCN(C(=S)Nc3ccc(Cl)c(Cl)c3)CC2)cc1` the “activity, negative = toxicity” value was inactive: 5.96%. For `Cc1nn(-c2cc(C(F)(F)F)ccn2)c(=O)o1`, the “activity, negative = toxicity” value was inactive: 4.15%. With `CC(C)CCN1CCN(Cc2coc3ccccc3c2=O)CC1CCO` (centres undefined) the “activity, negative = toxicity” value was inactive: -5.71%. For `COC(=O)CCC(=O)Nc1ccc2oc3c(c2c1)CCCC3`, the “activity, negative = toxicity” value was inactive: 0.531%. With `CCC(=O)Nc1nonc1-c1nc2ccccc2n1CCC(C)C` the Potency was inconclusive [cytotoxic, partial curve]. With `O=C(O)c1ccc2c3c(ncnc13)-c1ccccc1C2=O` the Potency was inconclusive [cytotoxic, partial curve]. With `CC(=O)c1cccc(Nc2nc(-c3ccccc3)nc3ccccc23)c1` the activity, negative = toxicity was inconclusive: -31.6% [cytotoxic]. For `CCN(CC)CCNC(=O)CCc1c(C)nc2c(c(C)nn2-c2ccc(C)c(C)c2)c1C`, the Potency was active: 25.9 µM. In the case of `COC(=O)C1=C(Nc2ccc(C)cc2)C=C(C)C(C(=O)OC)C1c1cccc(OC)c1` (centres undefined), the Potency is reported as inconclusive [cytotoxic, single point]. For `O=C(Nc1cccc(-c2cccc(Cl)c2)c1)C1CCN(Cc2nccs2)CC1`, the Potency was inconclusive [cytotoxic, single point]. With `Cc1ccc(/C=N/NC(=O)c2cc(-c3ccncc3)nc3ccccc23)o1` the Potency was active: 1.84 µM. For `CCOCCCn1c(C)nc2c(c1=O)c1nc3ccccc3nc1n2-c1ccc(C)cc1`, the “activity, negative = toxicity” value was inactive: -8.29%. In the case of `Oc1ccccc1C1CC(c2cccs2)=NC(c2cccc(Br)c2)N1` (centres undefined), the Potency is reported as inconclusive [cytotoxic, single point]. For `O=S(=O)(Cc1cc(Cl)nc(-c2ccccc2)n1)c1ccccc1`, the Potency was inconclusive [cytotoxic, single point]. With `NC(=O)COC(=O)c1ccccc1Oc1ccccc1` the “activity, negative = toxicity” value was inactive: 7.55%. With `Cc1ccc(-c2nc3c4ccccc4ccn3c2Cc2cccc(Cl)c2)cc1` the Potency was inconclusive [cytotoxic, single point]. For `Nc1c(C(=O)c2ccccc2)sc2nsc(SCCN3CCCC3)c12`, the Potency was active: 23.1 µM. With `O=C(O)CCS(=O)(=O)c1nc(-c2cccs2)cc(C(F)(F)F)n1` the Potency was inconclusive [cytotoxic, single point]. With `O=C(NCCCn1ccnc1)c1sc2cc([N+](=O)[O-])ccc2c1Cl` the “activity, negative = toxicity” value was inactive: -23.8%. For `NC(c1csc(Nc2cnccn2)n1)c1ccccc1Cl` (centres undefined), the “activity, negative = toxicity” value was inactive: -16.9%. In the case of `c1ccc2c(c1)nc(Nc1ccc3c(c1)OCO3)c1nnnn12`, the Potency is reported as inconclusive [cytotoxic, partial curve]. In the case of `CCc1cc(-c2nnn(CCC3COCCO3)c2C(C)(C)O)ccc1-c1cn(CCc2c[nH]c3ccccc23)nn1` (centres undefined), the Potency is reported as inconclusive [cytotoxic, partial curve]. In the case of `Cn1c2c(c(=O)n(C)c1=O)C(C(F)(F)F)(C(F)(F)F)N=C(CCC1CCCCC1)N2`, the Potency is reported as inconclusive [cytotoxic, single point]. In the case of `O=C(N/N=C/c1cn(-c2ccccc2)nc1-c1cccs1)c1ccccc1F`, the Potency is reported as inconclusive [cytotoxic, single point]. For `Cc1ccc(S(=O)(=O)N(C(=O)c2ccco2)c2cc3sc(=O)oc3c3ccccc23)cc1`, the Potency was inconclusive [cytotoxic, single point]. With `CCCC(C)NC(=O)c1cc(S(=O)(=O)N2CCCCCC2)ccc1OC` (centres undefined) the “activity, negative = toxicity” value was inactive: 0%. With `CCCN(Cc1ccc(C)cc1)C(=O)c1ccc(CNS(=O)(=O)c2ccc(C(C)=O)cc2)cc1` the “activity, negative = toxicity” value was inactive: -10.1%. In the case of `CC(Nc1nc(N2CCCCC2)nc2ccccc12)c1ccccc1` (centres undefined), the Potency is reported as inconclusive [cytotoxic, single point]. For `CCN(CC)S(=O)(=O)c1ccc2oc(Nc3ccccc3)nc2c1`, the Potency was inconclusive [cytotoxic, full curve]. For `S=C(NCCCN1CCN(CCCNC(=S)NC2CCCCC2)CC1)NC1CCCCC1`, the Potency was inconclusive [cytotoxic, partial curve, poor fit]. With `COc1ccc(-c2ccc3oc(-c4ccc(OC)cc4)c(C#CCO)c3c2)cc1` the Potency was active: 16.4 µM. For `COC(=O)C1=CN(Cc2ccc(OC)cc2)C=C(C(=O)OC)C1c1cc(OC)c(OC)c(OC)c1`, the “activity, negative = toxicity” value was inactive: -20.3%. For `COc1cccc2sc(Nc3nc4ccc(NC(C)=O)cc4s3)nc12`, the Potency was inconclusive [cytotoxic, partial curve]. In the case of `CC(=O)Nc1ccccc1-c1nc2ccccc2nc1OCC(=O)c1ccc2ccccc2c1`, the Potency is reported as inconclusive [cytotoxic, single point]. With `CCN(C(=O)COC(=O)c1ccccc1Nc1ccccc1)c1c(N)n(Cc2ccccc2)c(=O)[nH]c1=O` the “activity, negative = toxicity” value was inactive: -22.7%. With `COc1ccc(-c2cn3cccc(C)c3n2)cc1Br` the activity, negative = toxicity was inconclusive: -19.9% [cytotoxic]. For `Cn1c(CNc2nc3ccccc3n2CCN2CCCCC2)nc2ccccc21`, the “activity, negative = toxicity” value was inactive: -7.59%. In the case of `COc1ccccc1-c1c(C(F)(F)F)oc2cc(OS(C)(=O)=O)ccc2c1=O`, the “activity, negative = toxicity” value is reported as inactive: -11%. For `NC(=S)Cc1ccccc1Cl`, the “activity, negative = toxicity” value was inactive: -1.07%. In the case of `CN(C)S(=O)(=O)N(CC(=O)N1CCC(Cc2ccccc2)CC1)c1ccccc1`, the “activity, negative = toxicity” value is reported as inactive: -13.4%. For `O=C(/C=C/c1ccc([N+](=O)[O-])o1)NNC(=O)c1ccc(F)cc1`, the Potency was active: 2.59 µM. In the case of `CC1(C)Cc2c(sc3nc(-c4cccs4)n(N)c(=O)c23)CO1`, the Potency is reported as inconclusive [cytotoxic, single point]. In the case of `Nc1nc2n[nH]nc2c(=O)[nH]1`, the Potency is reported as active: 0.116 µM. For `CCCc1cc(=O)[nH]c(SCC(=O)Nc2cc(S(=O)(=O)N3CCOCC3)ccc2Cl)n1`, the Potency was inconclusive [cytotoxic, single point]. In the case of `Cc1cc(O)c(/C=N/Nc2ccc(Cl)cc2)c(=O)o1`, the Potency is reported as inconclusive [cytotoxic, full curve]. With `COc1ccc(-c2cnc3c(NC(C)=O)cc(-c4cccc(C(=O)NCCN(C)C)c4)cn23)cc1OC` the Potency was active: 32.6 µM. For `CN1C2CCC1/C(=C/c1cccn1C)C(=O)/C2=C\c1cccn1C`, the “activity, negative = toxicity” value was inactive: -0.628%. In the case of `Cc1ccc(S(=O)(=O)NCCC(=O)OCC(=O)NCCc2ccccc2)cc1C`, the “activity, negative = toxicity” value is reported as inactive: 4.61%. In the case of `Cc1ccc([N+](=O)[O-])cc1N=Nc1c(-c2ccc([N+](=O)[O-])cc2)[nH]n(C(N)=S)c1=O`, the Potency is reported as inconclusive [cytotoxic, full curve]. With `Cc1cc(C)cc(C(=O)NC(=S)Nc2ccc(Cc3ccncc3)cc2)c1` the Potency was inconclusive [cytotoxic, single point]. For `COc1ccc(-c2cc3nc4c(c(N5CCC6(CC5)OCCO6)n3n2)CCC4)cc1`, the “activity, negative = toxicity” value was inactive: -3.8%. With `CN(C)CCNC(=O)c1csc(Nc2cccc3ccccc23)n1` the Potency was inconclusive [cytotoxic, single point]. With `CCc1nc2c(OCc3cc(Cl)cc(Cl)c3)cccn2c1N(C)C(=O)Nc1ccccc1OC` the Potency was inconclusive [cytotoxic, single point]. For `COc1ccccc1NC(=O)N(Cc1cccs1)Cc1cc2cc3c(cc2[nH]c1=O)OCO3`, the Potency was inconclusive [cytotoxic, single point].
